# Data from PubChem BioAssay (NCATS).
# Some of the results follow. The main result of the screen is listed elsewhere. These columns were measured beside it and carry no call. For part of these data: Compounds called inactive in the main read-out are mostly missing here. Potencies come from curve fits of mixed quality, noted in brackets.
# Tests used:
# [1] = qHTS drug screen for cell cycle checkpoint inhibitors in PARPi-resistant BRCA-mutant ovarian cancer cell lines. (AID 1963452); details: PEO1/OlaR viability, CellTiter-Glo luminescence, 96 h
# Summary of the method: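 PEO1, PEO4 and PEO1/OlaR ovarian cancer cells, 600 per well, exposed 96 h at 37C to a dilution series. Viability read by CellTiter-Glo luminescence, normalized to DMSO and empty wells; activity summarized as Z-AUC.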
# [2] = qHTS for identification of novel therapeutic agents for treatment of microphthalmiaassociated transcription factor (MiT) renal cell carcinoma (RCC) (AID 1963991); details: CellTiter-Glo, 48 h; for z-score: stronger effect = lower value
# Summary of the method: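 Curves over 11 concentrations were fitted to CellTiter-Glo luminescence, scaled between empty wells (0%) and DMSO (100%) viability. Cells were UOK109, UOK124 and UOK145 TFE3-fusion RCC lines at 500/well, exposed 48 hours at 37 C.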
# [3] = qHTS Validation Assay to Find Inhibitors of Chronic Active B-Cell Receptor Signaling (AID 485345); details: ABC-DLBCL cells, chronic BCR signaling reporter
# Summary of the method: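 TMD8 ABC-DLBCL cells stably carrying doxycycline-inducible IkappaBalpha–green luciferase fusion plus unfused red luciferase; compounds 46 uM to 3 nM, 4 h at 37C with doxycycline. Corrected green/red luminescence ratio normalized to 10 uM MG-132 and basal cell wells; curves fitted.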
# [4] = measured here: PEO1 parental viability
# [5] = TFE3-RCC UOK109 viability, measured here: UOK109 Z-AUC
# [6] = TFE3-RCC viability, measured here: UOK124 Z-AUC
# [7] = TFE3-RCC viability, measured here: UOK124 cell viability
# [8] = TFE3-RCC viability, measured here: UOK145 Z-AUC
# [9] = TFE3-RCC viability, measured here: UOK145 cell viability
# Tags tell the direction and shape of the fitted curve.
compound,measurement,setting,value
CC1(N2CCC(n3c([C@@H]4CCCNC4)nc4ccccc43)CC2)CCCCCCC1,AC50,[1]; [4],"19.5 µM [falling, partial curve]"
same,AC50,[1]; measured here: PEO4 viability,"17.4 µM [falling, single point]"
same,z-score,[2]; [5],-0.334
same,z-score,[2]; [6],-0.309
same,AC50,[2]; [7],"16.6 µM [falling, partial curve]"
same,z-score,[2]; [8],-0.759
same,AC50,[2]; [9],"9.35 µM [falling, full curve]"
Cc1[nH]ncc1-c1cc2nc([C@@H]3CC4CCN3CC4)[nH]c(=O)c2s1,AC50,[1]; [4],"15.5 µM [falling, partial curve]"
same,AC50,[1]; measured here: PEO4 viability,"17.4 µM [falling, single point]"
CN1C(=O)COc2c(C(=O)NC3CN4CCC3CC4)cc(Cl)cc21 (stereo not drawn),z-score,[2]; [5],0.871
same,z-score,[2]; [6],0.724
same,z-score,[2]; [8],0.614
COc1ccc2c(c1)CN(C)CC2c1ccc(Cl)c(Cl)c1 (stereo not drawn),z-score,[2]; [5],0.54
same,z-score,[2]; [6],0.199
same,AC50,[2]; [7],"26.4 µM [falling, single point]"
same,z-score,[2]; [8],0.71
O=c1[nH]c2ccc(Cl)cc2c(N[C@@H]2CN3CCC2CC3)c1-c1nc2ccccc2[nH]1,AC50,[2]; [7],"0.332 µM [falling, full curve]"
same,AC50,[2]; [9],"0.332 µM [falling, full curve]"
CCNC(=O)CC1N=C(c2ccc(Cl)cc2)c2cc(OC)ccc2-n2c(C)nnc21 (stereo not drawn),AC50,[1]; [4],"19.5 µM [falling, partial curve, poor fit]"
same,z-score,[2]; [5],0.0501
same,z-score,[2]; [6],0.344
same,z-score,[2]; [8],-0.383
same,AC50,[2]; [9],"23.5 µM [falling, single point]"
C[C@@]12OC(=O)[C@]1([C@@H](O)[C@@H]1C=CCCC1)NC(=O)[C@H]2CCCl,AC50,[2]; [7],"0.0935 µM [falling, full curve]"
same,AC50,[2]; [9],"0.0935 µM [falling, full curve]"
C[C@]12CC[C@H]3[C@@H](CCC4=CC(=O)CC[C@@]43C)[C@H]1CC[C@H]2O,z-score,[2]; [5],-0.00683
same,z-score,[2]; [6],0.0742
same,z-score,[2]; [8],-0.167
COC1=C[C@@H]2[C@@H]3Cc4ccc(OC)c(O)c4[C@]2(CCN3C)CC1=O,z-score,[2]; [5],0.425
same,z-score,[2]; [6],-2.72
same,z-score,[2]; [8],-0.156
same,AC50,[2]; [9],"9.35 µM [falling, partial curve]"
CC[C@@H]1[C@@H](C)O[C@@](O)([C@@H](C)[C@H](O)[C@H](C)[C@H]2OC(=O)C=CC=C[C@@H](C)[C@@H]([C@@H](C)[C@@H](O)[C@H](C)[C@@]3(O)C[C@H](O[C@H]4C[C@H](O)[C@H](O)[C@H](C)O4)[C@H](CC)[C@@H](C)O3)OC(=O)C=CC=C[C@@H]2C)C[C@H]1O[C@H]1C[C@H](O)[C@H](O)[C@H](C)O1,AC50,[2]; [7],"0.526 µM [falling, full curve]"
same,AC50,[2]; [9],"1.05 µM [falling, full curve]"
CC1(C)C(=O)N(c2ccc(C#N)c(C(F)(F)F)c2)C(=S)N1Cc1ccc(-c2cn[nH]n2)cc1,AC50,[1]; [4],"17.4 µM [falling, single point]"
same,AC50,[1]; measured here: PEO4 viability,"21.9 µM [falling, single point]"
CO[C@H]1CCC(O[C@H]2C[C@H]([C@]3(C)CC[C@]4(C[C@H](O)[C@@H](C)[C@@H]([C@@H](C)/C=C(\C)C(=O)[C@H](C)C[C@H](C)C(=O)O)O4)O3)O[C@]3(O[C@@H]([C@H]4O[C@@](O)(CO)[C@H](C)C[C@@H]4C)C[C@@H]3C)[C@@H]2C)O[C@@H]1C (stereo partly drawn),AC50,[1]; [4],"1.38 µM [falling, full curve]"
same,AC50,[1]; measured here: PEO4 viability,"0.436 µM [falling, full curve]"
CC(C)(C)[C@]1(O)C[C@@H]2OC(=O)C[C@@]23C(=O)O[C@@H]2OC(=O)[C@H](O)C213 (stereo partly drawn),z-score,[2]; [5],0.211
same,z-score,[2]; [6],0.532
same,z-score,[2]; [8],-2.5
same,AC50,[2]; [9],"0.0209 µM [rising, full curve]"
C/C=C(/C)C(=O)O[C@H]1C(C)=C2[C@H]([C@@H]1OC(=O)CCCCCCC)[C@@](C)(OC(C)=O)C[C@H](OC(=O)CCC)[C@@]1(O)[C@H]2OC(=O)[C@@]1(C)O,AC50,[3]; measured here: CBG/CBR ratio read-out,"14.6 µM [falling, partial curve]"
same,AC50,[3]; measured here: CBR control luciferase (viability counter),"18.4 µM [falling, single point]"
same,AC50,[1]; [4],"0.0078 µM [falling, full curve]"
same,AC50,[1]; measured here: PEO4 viability,"0.0069 µM [falling, full curve]"
O=C(O)CNC(=O)c1c(O)c2ccccc2n(Cc2ccccc2)c1=O,z-score,[2]; [5],0.463
same,z-score,[2]; [6],0.475
same,z-score,[2]; [8],0.634
C[C@@H]1O[C@@H](O[C@@H]2C=C3CC[C@@H]4[C@@H](CC[C@]5(C)[C@H](c6ccc(=O)oc6)CC[C@@]45O)[C@@]3(C)CC2)[C@H](O)[C@H](O)[C@H]1O,AC50,[2]; [7],"0.0264 µM [falling, full curve]"
same,AC50,[2]; [9],"0.0187 µM [falling, full curve]"
COC1=CC(C)=C[C@@H](C)[C@@H](O)[C@@H](C)CC(C)=CC=C[C@H](OC)[C@H]([C@@H](C)[C@@H](O)[C@H](C)[C@@]2(O)C[C@@H](O)[C@H](C)[C@@H](C(C)C)O2)OC1=O,AC50,[2]; [7],"23.5 µM [falling, partial curve, poor fit]"
same,AC50,[2]; [9],"0.00743 µM [falling, full curve]"
CC(C)CC(N(C)C)C1(c2ccc(Cl)cc2)CCC1 (stereo not drawn),z-score,[2]; [5],0.59
same,z-score,[2]; [6],0.804
same,AC50,[2]; [7],"18.7 µM [falling, single point]"
same,z-score,[2]; [8],0.227
O=C(Oc1ccc([N+](=O)[O-])cc1)N1CCN(Cc2cccc(Oc3ccccc3)c2)CC1,AC50,[1]; [4],"24.5 µM [falling, partial curve, poor fit]"
same,z-score,[2]; [5],-0.801
same,z-score,[2]; [6],0.364
same,AC50,[2]; [7],"37.2 µM [falling, partial curve, poor fit]"
same,z-score,[2]; [8],-0.675
same,AC50,[2]; [9],"9.35 µM [falling, full curve]"
C[C@](O)(COc1ccc(C#N)cc1)C(=O)Nc1ccc(C#N)c(C(F)(F)F)c1,AC50,[1]; [4],"17.4 µM [falling, single point]"
same,AC50,[1]; measured here: PEO4 viability,"24.5 µM [falling, single point]"
same,z-score,[2]; [5],0.534
same,z-score,[2]; [6],0.239
same,AC50,[2]; [7],"33.2 µM [falling, partial curve, poor fit]"
same,z-score,[2]; [8],0.238
CC(=O)Nc1ccc(OC[C@](C)(O)C(=O)Nc2ccc([N+](=O)[O-])c(C(F)(F)F)c2)cc1,z-score,[2]; [5],0.83
same,z-score,[2]; [6],-0.0215
same,z-score,[2]; [8],-0.136
CN(C)CCN(C)CCc1ccc(Cl)c(Cl)c1,AC50,[1]; [4],"0.0078 µM [rising, full curve, poor fit]"
same,z-score,[2]; [5],0.761
same,z-score,[2]; [6],0.878
same,AC50,[2]; [7],"14.8 µM [falling, partial curve, poor fit]"
same,z-score,[2]; [8],0.702
CC(C)(O)C=CC(=O)[C@](C)(O)[C@H]1[C@H](O)C[C@]2(C)[C@@H]3CC=C4[C@@H](C=C(O)C(=O)C4(C)C)[C@]3(C)C(=O)C[C@@]12C,AC50,[2]; [7],"0.166 µM [falling, full curve]"
same,AC50,[2]; [9],"0.148 µM [falling, full curve]"
Cc1ccccc1-n1c(Cn2cnc3c(N)ncnc32)nc2cccc(C)c2c1=O,AC50,[2]; [7],"1.66 µM [falling, full curve]"
same,AC50,[2]; [9],"0.526 µM [falling, full curve]"
CCN1CCN(C(=O)Cc2ccc(Nc3ncc(F)c(Nc4ccc(C(=O)Nc5ccccc5Cl)cc4)n3)cc2)CC1,AC50,[1]; [4],"17.4 µM [falling, partial curve]"
same,AC50,[1]; measured here: PEO4 viability,"1.38 µM [falling, full curve]"
same,z-score,[2]; [5],-0.78
same,z-score,[2]; [6],-1.24
same,AC50,[2]; [7],"6.62 µM [falling, full curve]"
same,z-score,[2]; [8],0.315
same,AC50,[2]; [9],"26.4 µM [falling, partial curve]"
Cc1c(C(=O)Nc2cccc(C(F)(F)F)c2)cc(-c2ccccc2)n1CCCN1CCOCC1,AC50,[1]; [4],"17.4 µM [falling, single point]"
same,AC50,[1]; measured here: PEO4 viability,"17.4 µM [falling, partial curve]"
same,z-score,[2]; [5],0.534
same,z-score,[2]; [6],-0.104
same,AC50,[2]; [7],"23.5 µM [falling, partial curve]"
same,z-score,[2]; [8],0.239
same,AC50,[2]; [9],"23.5 µM [falling, partial curve]"
CN[C@@H]1C[C@H]2O[C@@](C)([C@@H]1OC)n1c3ccccc3c3c4c(c5c6ccccc6n2c5c31)C(=O)NC4,AC50,[1]; [4],"0.195 µM [falling, full curve]"
same,AC50,[1]; measured here: PEO4 viability,"0.0977 µM [falling, full curve]"
CN[C@@H]1Cc2cccc3[nH]c(=O)n(c23)C1,z-score,[2]; [5],0.882
same,z-score,[2]; [6],0.497
same,z-score,[2]; [8],0.456
CCOc1ccccc1-n1c(C(C)N2CCN(C(=O)COc3ccc(Cl)cc3)CC2)nc2ccccc2c1=O (stereo not drawn),AC50,[1]; [4],"7.76 µM [falling, partial curve]"
same,AC50,[1]; measured here: PEO4 viability,"11 µM [falling, partial curve]"
O=C(Nc1ccncc1)C(=O)c1cn(Cc2ccc(Cl)cc2)c2ccccc12,AC50,[1]; [4],"0.049 µM [falling, full curve]"
same,AC50,[1]; measured here: PEO4 viability,"0.0219 µM [falling, full curve]"
same,AC50,[2]; [7],"0.743 µM [falling, full curve]"
same,AC50,[2]; [9],"0.166 µM [falling, full curve]"
CC=C(C)C(=O)N[C@@H](c1ccccc1)[C@@H](O)C(=O)O[C@H]1C[C@@]2(O)[C@@H](OC(=O)c3ccccc3)[C@@H]3[C@]4(OC(C)=O)CO[C@@H]4C[C@H](O)[C@@]3(C)C(=O)[C@H](OC(C)=O)C(=C1C)C2(C)C,z-score,[2]; [5],-1.49
same,z-score,[2]; [6],-1.36
same,z-score,[2]; [8],-2.39
same,AC50,[2]; [9],"0.0148 µM [falling, full curve]"
CC(C)N[C@@H]1CCn2c(=O)[nH]c3cccc(c32)[C@@H]1O,z-score,[2]; [5],-1.07
same,z-score,[2]; [6],1.01
same,z-score,[2]; [8],1.54
same,AC50,[2]; [9],"11.8 µM [falling, partial curve]"
C[C@]12CC[C@H]3[C@@H](CC[C@@]45O[C@H]4C(O)=C(C#N)C[C@]35C)[C@H]1CC[C@H]2O,z-score,[2]; [5],-0.101
same,z-score,[2]; [6],0.465
same,AC50,[2]; [7],"0.00105 µM [rising, full curve, poor fit]"
same,z-score,[2]; [8],0.455
CC[C@H]1C=CC=CC[C@@H](C)[C@H](O)[C@@](C)(O)C(=O)[C@@H](C)[C@H](O)[C@@H](C)C(=O)[C@@H](C)[C@H](O)[C@@H](C)C=CC(=O)O[C@@H]2[C@@H](C)[C@H](CC1)O[C@]1(CC[C@H](C)[C@H](C[C@@H](C)O)O1)[C@H]2C,z-score,[2]; [5],-1.16
same,z-score,[2]; [6],-0.381
same,AC50,[2]; [7],"33.2 µM [falling, single point]"
same,z-score,[2]; [8],0.182
same,AC50,[2]; [9],"29.6 µM [falling, single point]"
